# Reference: the supplement of paper PMC12217912
# Some of the results follow. The full chains were built here from the parent and the listed change. Values near 0.05 are background.
# B1: TEV protease; numbered along this chain (parent)
# chain: MGESLFKGPRDYNPISSSICHLTNESDGHTTSLYGIGFGPFIITNKHLFRRNNGTLVVQSLHGVFKVKDTTTLQQHLVDGRDMIIIRMPKDFPPFPQKLKFREPQREERICLVTTNFQTKSMSSMVSDTSCTFPSGDGIFWKHWIQTKDGQCGSPLVSTRDGFIVGIHSASNFTNTNNYFTSVPKNFMELLTNQEAQQWVSGWRLNADSVLWGGHKVFMVKPEEPFQPVKEATQL
# Variants of: B1
# Assay: raw area under fraction-flipped curve 0-4 h after induction (AUC4h, not background-subtracted), DNA-recorder readout of cleavage of the substrate (dimensionless); higher = more cleavage of the substrate by the protease variant
# Details: temperature: 34 °C; time window: 0-4 h after rhamnose induction
# Procedure: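 In vivo DNA recorder in E. coli TOP10(DE3) ΔrhaA at 34 °C. Each TEVp single-site mutant (parent TEVp 0) is paired with a single-site variant of the 7-mer TEVs (canonical ENLYFQ|S). The substrate sits between flexible linkers in a Bxb1-sfGFP-TEVs-SsrA fusion, so cleavage stabilises Bxb1 and speeds flipping of a recombination array, read by NGS. The value is the raw area under the fraction-flipped curve over 0-4 h after rhamnose induction (AUC4h), with ≥20 reads per time point. It is not background-subtracted; inactive controls average about 0.047.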
# 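Further: Bxb1 expression induced with 0.2% (w/v) L-rhamnose at OD600 near 0.5, cultures sampled hourly, flipped fraction per protease–substrate barcode pair counted by paired-end Illumina sequencing.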
Variant,area with substrate ENLAFQS,area with substrate ENLCFQS,area with substrate ENLDFQS,area with substrate ENLEFQS,area with substrate ENLHFQS,area with substrate ENLIFQS,area with substrate ENLLFQS,area with substrate ENLPFQS,area with substrate ENLFFQS,area with substrate ENLKFQS,area with substrate ENLNFQS,area with substrate ENLRFQS,area with substrate ENLWFQS,area with substrate ENLGFQS,area with substrate ENLSFQS,area with substrate ENLTFQS,area with substrate ENLVFQS,area with substrate ENLQFQS,area with substrate ENLMFQS
Q74L,0.0723,0.0682,0.0675,0.0591,0.0837,0.0761,0.0058,0.101,–,–,–,–,–,–,–,–,–,–,–
D69V,0.0825,0.0647,0.0666,–,0.0614,0.0749,0.0528,0.055,0.0669,0.0616,0.0657,0.0692,0.0582,–,–,–,–,–,–
H62Q,0.0624,–,–,0.0786,0.0614,–,0.081,–,0.0494,–,0.0731,0.0378,–,0.0618,0.0627,–,–,–,–
H62G,0.0732,0.0725,0.0673,0.0566,0.0706,0.0827,0.0811,0.0733,0.0734,0.0457,0.0731,–,–,0.0797,0.0759,0.0609,0.106,–,–
H62P,0.0526,–,0.0558,0.0597,0.0583,–,–,–,0.0838,0.0635,0.0551,–,0.0586,–,–,–,–,0.0556,–
Q75Y,0.0448,–,0.0623,0.0634,0.0522,0.0647,0.0558,0.0597,0.0725,0.0453,0.0457,0.0613,0.0544,0.0548,0.0678,–,–,0.0601,0.0648
Q75S,0.0763,–,0.0634,–,0.07,–,–,–,0.0923,0.0702,0.0594,–,–,–,–,0.0686,0.0726,0.0638,0.0707
M83H,0.049,0.0532,0.0584,0.0638,0.0519,–,0.0566,0.0525,0.0558,0.0555,0.0576,0.0594,0.0342,0.067,0.0548,–,–,–,–
P9D,0.0627,–,0.0655,–,–,–,–,–,–,0.0558,–,0.0724,–,0.0714,–,–,–,–,–
P9E,0.0526,0.0713,0.0623,–,0.0562,–,–,–,0.0745,0.0771,0.0453,0.0701,0.067,–,0.0675,–,–,0.0598,–
P9S,0.0699,–,0.0692,–,0.0667,0.0964,0.0564,0.0363,0.0659,–,0.0701,0.0698,0.0577,–,0.0782,–,–,–,–
Y34D,0.0661,–,0.0618,–,–,–,–,0.0584,–,0.0525,0.0624,0.0875,0.0606,–,–,–,–,–,–
S26I,0.0536,0.0534,0.065,0.0459,–,0.0529,–,0.0592,0.0735,0.071,0.0684,–,0.0529,–,–,–,0.0569,0.0627,–
S18D,0.0603,–,0.048,–,0.0547,–,0.0556,–,–,0.071,0.0608,–,0.0644,–,0.0495,–,0.0907,0.0575,–
K46G,0.0514,0.0669,0.0633,0.057,–,0.0807,0.0576,0.0765,0.0664,0.07,–,0.0739,0.0522,0.0396,0.06,–,0.093,–,0.0704
